In all, about 33,000 sequences were measured (“E-score (-0.5 to 0.5)”: median about -0.01, highest 2% from about 0.26 on). This is one part of the list.
target: Ste12 (UniProt P13574); test: PBM E-score (8-mer binding enrichment) (E-score (-0.5 to 0.5)); higher = stronger / more preferred TF binding; most listed sequences are background and not binding sites; conditions: protein concentration: 200 nM; construct: GST-DNA-binding domain
In short: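 Yeast transcription factors, full-length or as DNA-binding domains, were expressed with a GST tag using PURExpress in vitro transcription/translation. At about 100-200 nM they were applied to universal all-10-mer Agilent arrays, double-stranded by primer extension on fresh or once-stripped slides. Fluorescent anti-GST detected bound protein, and masliner normalised the scans. E-scores for ungapped eight-base words, pooled with reverse complements, came from the Universal PBM Analysis Suite.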

In order of falling “PBM E-score” value:
1. ACCCCGCC  0.41
2. ATCGTTTC  0.35
3. CCCGCCCA  0.332
4. AAAGTCGC  0.282
5. CAATTATC  0.231
6. CACAATAG  0.227
7. CGATCGGC  0.222
8. AAAAAGTC  0.219
9. CCGACAGA  0.213
10. AGAGTGAA  0.212
11. ATCACCCC  0.206
12. AAACATAG  0.205
13. CCCCACAA  0.2
14. AACGACAT  0.189
15. AAAACTAG  0.182
16. TAATAATA  0.181
17. ATTCCAAA  0.167
18. GCAACAAA  0.165
19. GAAGTAAA  0.161
20. TGAATCCA  0.156
21. AAACCGAT  0.153
22. AACTTGAT  0.151
23. ACTTTATG  0.149
24. CAAACGTG  0.146
25. TCTTTAAA  0.146
26. CATTTCTC  0.146
27. CATTATCC  0.143
28. TGAGAAAA  0.134
29. CGTGCTTC  0.133
30. GTCCAAAA  0.123
31. GGCCGGCA  0.115
32. GTTCTGAA  0.114
33. GCGCTTCA  0.114
34. ATCCAGAT  0.0989
35. GTTCGGAA  0.097
36. CTAACAAG  0.0938
37. AATCAGAG  0.0937
38. AACGTCGA  0.0936
39. CTTTGGGA  0.0925
40. GAAGTATA  0.0919
41. CGTTAAAG  0.0915
42. AAATCTTG  0.0896
43. CTGAACCA  0.0857
44. ATGTGATA  0.084
45. ATGTGGTG  0.0839
46. TCGTGTCA  0.0839
47. AGTGGCGC  0.0832
48. AATCGTGC  0.0818
49. AGTAGTAT  0.0811
50. ACGTTAAA  0.0806
51. ACATATGG  0.0801
52. ACAGCAGC  0.0783
53. GGTCCGGA  0.0768
54. CTATACCA  0.0746
55. AACTTATC  0.0734
56. ACTAGCCT  0.0711
57. CGGAGCGC  0.0689
58. GGAATACA  0.0679
59. GGCTAGAA  0.0675
60. GGACTAAA  0.0661
61. AGTGAGAC  0.0658
62. ATTCGCCG  0.0635
63. TACCCGAA  0.0635
64. CTTTGTCC  0.0626
65. ACTAAGTG  0.0621
66. AGGGTGTG  0.0609
67. AACCTGGT  0.0596
68. CCAGAACA  0.0595
69. GCGGCTCA  0.0577
70. AATTTGGC  0.0552
71. ATCGGGGA  0.048
72. ATAAGTAT  0.042
73. ATTGGTGC  0.0393
74. GCGTACGA  0.0364
75. CGCCAATA  0.036
76. AAATGCTT  0.033
77. CACAACTG  0.0283
78. CGTACTTC  0.0278
79. GAGGTTCA  0.0271
80. CTAAAAAC  0.023
81. GAGTCGGC  0.0226
82. CCTATCGA  0.0224
83. AATGCCTA  0.0216
84. ACATTACG  0.02
85. CCGATCGG  0.0195
86. ATATCTAG  0.0193
87. CTTCGTTA  0.0185
88. GACCATGA  0.0168
89. CTGTACAG  0.0159
90. CAACGAGC  0.0152
91. CGATGTTC  0.0123
92. ACATATCG  0.0123
93. AATTGTGC  0.012
94. ACGCCCCT  0.00926
95. CAAGAGAA  0.00775
96. GCCAGTAA  0.00676
97. GAACAAGA  0.00666
98. AGCCGTAG  0.00545
99. CGTTATAG  0.00461
100. AAAGATGG  0.00324
101. TCAGCACA  0.00131
102. AGGGTTTA  0.00108
103. CGGCTCTC  -0.00045
104. GCACTGCC  -0.00046
105. CTCTTTCA  -0.00124
106. GACCGTAA  -0.00253
107. ATAGGCAG  -0.00285
108. CAGATCCG  -0.00451
109. CAATCTGA  -0.00699
110. AAATAGCC  -0.00727
111. ACCAGGAA  -0.00935
112. AAACTATG  -0.0101
113. ACACCCCT  -0.0112
114. ACAATAGA  -0.0136
115. GAGGCCGA  -0.0143
116. CGCACCTA  -0.0159
117. CACTCCAG  -0.019
118. CGACGGCG  -0.0199
119. AAGACGGG  -0.0214
120. ACGGATGA  -0.022
121. AAGGGGCG  -0.0232
122. CAGCTGAG  -0.024
123. ACTGATTA  -0.0244
124. GGCGCAGA  -0.0264
125. TCATGGGA  -0.0265
126. CCATTGTC  -0.0322
127. CGCCTCTA  -0.0334
128. CGTGCTCA  -0.0374
129. ACGTTCCT  -0.0389
130. CTAGTCGA  -0.0403
131. ACAACAGA  -0.0413
132. CGCGTAAG  -0.0415
133. ACCAACAG  -0.042
134. CGACACCA  -0.0428
135. TCTTGACA  -0.0432
136. CTACAACC  -0.0441
137. CGGGCGTA  -0.0442
138. ACGTTAGT  -0.0471
139. ACGAGCGC  -0.0483
140. GAGGAGCA  -0.0496
141. ACTTACCT  -0.0503
142. AATTACGT  -0.0503
143. CCACGACG  -0.0503
144. CTCCCACC  -0.051
145. AGGATCCT  -0.0539
146. AAGTGCGG  -0.0546
147. AAGACCAA  -0.0551
148. CGGCGCCC  -0.0583
149. GGCTAGGA  -0.0596
150. CGGCCGCC  -0.0604
151. CAGGTTAG  -0.0618
152. ACCAGACA  -0.0629
153. CGGTCTAA  -0.0644
154. ACGACGTC  -0.0648
155. CGCACTCA  -0.065
156. GAGCTCAA  -0.0663
157. GAACGCCC  -0.0696
158. ATCCCCCA  -0.0699
159. GCGTTCTA  -0.0704
160. GGCCGGAA  -0.0707
161. CTATACAA  -0.0712
162. CAGCAGTA  -0.0736
163. ACTTCTAG  -0.0758
164. TAGCATAA  -0.0762
165. CCTAGCCG  -0.077
166. GGCAGCAC  -0.0772
167. CCCTGCGC  -0.0772
168. TAATAGGA  -0.0788
169. GAGACTGC  -0.0788
170. CCTGCACC  -0.0794
171. CGTCAGAA  -0.0833
172. GAGCATGA  -0.0834
173. CCCCTTCA  -0.0892
174. CAGCACCA  -0.0901
175. AATCCGCC  -0.0917
176. ACATGTTC  -0.0966
177. ACTGGAAG  -0.0981
178. TAGGACTA  -0.0996
179. CTTGGAAC  -0.105
180. CGAAGCTA  -0.109
181. CAGCGGCC  -0.115
182. ACCAAGAG  -0.117
183. CGAGTCAG  -0.119
184. GCGGCGCA  -0.12
185. AGAGGCGC  -0.122
186. ATTGAGGG  -0.124
187. GTAGCGAA  -0.126
188. ACGACCAC  -0.129
189. GATGCCAA  -0.136
190. AGCGGATA  -0.138
191. CTCGCTTC  -0.142
192. CAGCGCCA  -0.145
193. TAGGCTCA  -0.15
194. CACGGTAC  -0.15
195. CTCCATGC  -0.15
196. CTAGGCGC  -0.154
197. GCGTACCA  -0.158
198. CCGCTCCC  -0.164
199. AGCCCAGA  -0.165
200. GGACGTAC  -0.174
201. CGTCTAGA  -0.174
202. CGTCAGGC  -0.174
203. GCGCGTCC  -0.175
204. GCATTACC  -0.176
205. AGACGGAC  -0.178
206. CCACGTAG  -0.18
207. GCAAAGCC  -0.185
208. ACCTTCGT  -0.185
209. AACCCCCA  -0.196
210. CAGCTCTC  -0.199
211. TGACCACA  -0.222
212. ACGGTAGC  -0.229
213. ATTGGGGG  -0.233
214. GGCAGACC  -0.246
215. ATGCTTGC  -0.256
216. CGATAGAG  -0.263
217. AGACTCAC  -0.264
218. CAGCTCAC  -0.301
219. GCCTAAGC  -0.358
